Consider 1 molecule from patent publication CN115677859A (HEFEI HANKEMAB BIOTECHNOLOGY CO LTD; ANHUI ANKE …, dated 2023).

For experiment [1], the target named is T1, 人PD-L1全长, 表达于CHO-K1细胞 (CHO-K1/hPD-L1; CHO-K1/PDL1/TCR) (human, UniProt Q9NZQ7).
T1 construct: Full-length human PD-L1 transfected into CHO-K1 cells; also called 细胞表面人PD-L1抗原
In words: flow cytometry on CHO-K1/hPD-L1 cells, 4-parameter logistic fit.

Experiment [2] deals with T1, 人PD-L1全长, 表达于CHO-K1细胞 (CHO-K1/hPD-L1; …). Briefly: flow cytometry on CHO-K1/hPD-L1 cells, anti-human FITC.
Experiment [3] has as its target T2, 人4-1BB全长, 表达于细胞 (CHO-K1/h4-1BB; HEK-293/NFκB-Luci/4-1BB) (human, UniProt Q07011 24-255).
T2 construct: also called 细胞表面人4-1BB抗原
In words: flow cytometry on CHO-K1/h4-1BB cells.

Experiment [4] has as its target T3, 人4-1BB胞外段 (human 4-1BB extracellular domain, HEK293-expressed, Example 4) (human, UniProt Q07011 24-186).
T3 construct: also called 人4-1BB抗原; CD137
Briefly: ELISA, human 4-1BB ECD coated, anti-human IgG HRP.

Experiment [5] concerns the target T4, 人4-1BB胞外段, 带鼠Fc标签 (human 4-1BB extracellular domain with mouse Fc tag, Example 5) (human, UniProt Q07011 24-186).
T4 construct: also called 抗原人4-1BB; not shown: mouse Fc tag
In words: bridging ELISA: PD-L1-His coated, bispecific, then 4-1BB-mouse Fc, anti-mouse HRP.

Sequence of UniProt Q9NZQ7 (Q9NZQ7 19-290 limits assumed): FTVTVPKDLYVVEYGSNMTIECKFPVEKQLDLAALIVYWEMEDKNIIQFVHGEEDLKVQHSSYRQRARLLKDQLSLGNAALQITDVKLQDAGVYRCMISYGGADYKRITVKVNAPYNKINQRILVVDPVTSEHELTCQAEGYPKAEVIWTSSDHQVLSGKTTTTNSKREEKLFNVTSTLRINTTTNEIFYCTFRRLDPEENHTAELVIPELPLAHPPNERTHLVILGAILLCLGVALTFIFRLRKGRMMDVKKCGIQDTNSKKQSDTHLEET

B1: 抗人PD-L1/4-1BB双特异性抗体 结构A (anti-4-1BB scFv-(G4S)2-IgG4 Fc-(G4S)3-anti-PD-L1 scFv) (bispecific antibody)
chain: DIQMTQSPSSLSASLGDRVTISCSASQGISNYLNWYQQKPDGTVKLLIYYTSTLHSGVPSRFSGSGSGTDYTLTISSLQPEDIATYYCQQYSKLPWTFGCGTKLEIKGGGGSGGGGSGGGGSGGGGSQVQLQESGPGLVKPSETLSLTCTVSGSSLTSYGVHWVRQPPGKCLEGLGVIWPGGSTNYNSALMSRVTISKDNSKSQVSLKMSSLTAADTAVYYCARVTGTWYFDVWGQGTTVTVSSGGGGSGGGGS[human IgG4 Fc with S228P F234A L235A (EU numbers) not shown]GGGSGGGGSGGGGSDIQMTQSPSTLSASVGDRVTITCQSSQNVYSNNRLSWYQQKPGKAPKLLIYWTSFLASGVPSRFSGSGSGTEFTLTISSLQPDDFATYYCAGGYSGNLYTFGCGTKLEIKGGGGSGGGGSGGGGSGGGGSDVQLVESGGGLVQPGGSLRLSCTVSGIDLSSYDMTWVRQAPGKCLEYIGYISYVSRTYYADSVKGRFTISKDTSKNTVYLQMNSLRAEDTAVYYCARDRPDGAATNLWGQGTLVTVSS
notes: also called A结构
Consider B1, for which the EC50 in experiment [1] was determined as 7.34 nM. Also, in experiment [2], the “FACS fluorescence signal at 0.308 nM (name of read-out not given)” value came out at 505, the “FACS fluorescence signal at 0.617 nM (name of read-out not given)” value worked out at 671, the “FACS fluorescence signal at 1.851 nM (name of read-out not given)” value came to 1200 and the “FACS fluorescence signal at 5.555 nM (name of read-out not given)” value is 3340. In experiment [2], the “FACS fluorescence signal at 16.666 nM (name of read-out not given)” value worked out at 8000 and the “FACS fluorescence signal at 50 nM (name of read-out not given)” value was 8730. Besides, in experiment [3], the binding result is on record as “binds”. In experiment [4], the binding result is “binds”. Also, in experiment [5], the binding result is “binds”.
